PubChem BioAssay AID1963576 (National Center for Advancing Translational Sciences (NCATS), 2024)
The campaign covered roughly 46,000 compounds. About 60 (0.1%) were called active. Not shown: some 3% with an inconclusive outcome. Calls come from the whole dose curve; as a rule, active = well fitted inhibition curve with a large enough effect; inconclusive = small, poorly fitted or top-dose-only effect; inactive = no such curve, though single readings can be large or run the other way. The list shows a part of the results.

assay: Primary qHTS assay for Inhibitors of ovarian cancer metastasis using an organotypic tumor microenvironment (TME) model.; note: nearly all actives have a fitted effect of over 65% in size;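 for activity change, negative = inhibition: plate controls were DMSO wells for no effect and tomatine positive control wells for full effect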; conditions: SKOV3ip1-GFP adhesion/invasion on 3D omental model, fluorescence; series mostly up to 45.8 µM; activity change, negative = inhibition: at the top concentration
How it was run: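 Primary human omental fibroblast/mesothelial 3D culture pre-formed 48 h. SKOV3ip1-GFP cells added with compounds (0.36-46 umol/L), incubated 2 h RT/16 h 37 C, fixed; GFP cells quantified at 488/509 nm.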

Activity change, negative = inhibition, inactive:
Cc1ccc(C)c(N2CCN(S(=O)(=O)c3ccc(C4CCCCC4)cc3)CC2)c1 6.7%
Cc1ccc(Nc2c(-c3cccc(Cl)c3)nc3cccc(C)n23)cc1 7.75%
Cc1ccc(NC(=O)CSc2nc(=O)n(CCN3CCOCC3)c3c2CCC3)cc1Cl 2.91%
CN(C)C1(CNC(=O)COc2cccc(Cl)c2)CCCCC1 -13.1%
Cc1ccccc1C(=O)Nc1ccc2nc(SCC(=O)N(C)c3ccccc3)sc2c1 -14.1%
Cc1cccc(Cn2c(SCc3ccc(C(=O)NCc4cccs4)cc3)nc3ccncc32)c1 -3.36%
O=C1CCC[C@@H]2[C@H]3CCC[N+]4([O-])CCC[C@@H](CN12)[C@@H]34 (stereo not given in full) -2.7%
Cn1cc(-c2cc3n(n2)CCC(=O)N3CC(=O)NCc2ccccc2)c2ccccc21 0.0869%
COc1ccc(N(C(=O)c2cc(OC)c(OC)c(OC)c2)S(=O)(=O)c2ccc(C)cc2)cc1 2.64%
CC(C)c1ccc(Cc2cnc(NC(=O)c3ccc4c(c3)CC(c3ccccc3)OC4=O)s2)cc1 (stereo not given) -10.2%
Cc1cccc(C(=O)NCc2cn3cccc(C)c3n2)c1 9.79%
CCOC(=O)C1CCCN(C(=O)Cn2nc(C)n3c(cc4c(OC)cccc43)c2=O)C1 (stereo not given) -23.9%
CCC(C)n1c(=N)c(C(=O)NC2CCCCC2)cc2c(=O)n3cc(C)ccc3nc21 (stereo not given) 23.7%
COc1ccccc1OC(C)C(=O)N1CCN(CCc2ccccn2)CC1 (stereo not given) -0.612%
Cc1ccc(C)c(NC(=O)C(NS(=O)(=O)c2ccc3c(c2)CCC(=O)N3)c2ccccc2)c1 (stereo not given) 3.45%
Cc1ccc(CNC(=O)C2CCN(S(=O)(=O)c3c(C)noc3/C=C/c3ccccc3F)CC2)o1 -8.03%
COc1cccc(CNC(=O)C2CCCN(S(=O)(=O)c3cn(C)cn3)C2)c1 (stereo not given) 10%
Cc1ccc(-n2c(=O)c3cccnc3n2CC(=O)Nc2ccccc2C(F)(F)F)cc1C 2.01%
CCN(CC)c1ccc(C2C(C(N)=O)=C(C)Nc3nc(SCc4ccccc4)nn32)cc1 (stereo not given) 156%
O=c1c2ccccc2nc2sc(Nc3cccc(C(F)(F)F)c3)nn12 4.06%
COc1ccc(-c2noc(CCC(=O)Nc3ccccc3Cl)n2)cc1OC 1.76%
Cc1ccc(N2CC(NC(=O)Cc3ccc(F)cc3)CC2=O)cc1C (stereo not given) -0.403%
COc1ccc(/C=C\c2onc(C)c2S(=O)(=O)N2CCC(C(=O)Nc3ccc(C)c(F)c3)CC2)cc1 4.92%
CCOC(=O)c1nnc2c(-c3ccc(F)cc3)c(C)nn2c1N 3.06%
Fc1ccc(-c2noc3ncnc(NCc4cccc(Cl)c4)c23)cc1 3.03%
CSc1cccc(NS(=O)(=O)c2ccc3[nH]cc(C(=O)N4CCCCCC4)c(=O)c3c2)c1 9.42%
Cc1ccc(-c2onc(C)c2C)cc1S(=O)(=O)NC1CCC(C)CC1 (stereo not given) -4.27%
CCOc1cc(C2CC(=O)Nc3c2c(C)nn3-c2nc(C)cc(C)n2)ccc1O (stereo not given) 0.697%
COC(=O)c1cccnc1-n1c(=O)c2cccnc2n(CC(=O)Nc2cccc(C(F)(F)F)c2)c1=O -0.562%
COc1ccc(/C=C(\C#N)c2nc(-c3cc4ccccc4oc3=O)cs2)cc1OC 0.42%
COc1ccc2c(c1)Cc1sc(NC(=O)c3cccc(Cl)c3)nc1-2 1.01%
CC(=O)Nc1nonc1-c1nnc(SCc2cccc(Br)c2)n1C 2.94%
CCCN(CCC)CCCNC(=O)c1nn(C)c2c1CS(=O)(=O)c1ccccc1-2 1.76%
CC(C)c1ccc(-c2noc(SCC(=O)N3CCCCC3)n2)cc1 2.23%
O=C(/C=C/c1ccccc1)Nc1cc(-c2nc3ccccc3o2)ccc1Cl 0.796%
COc1cc(C)ccc1OCCSc1nnc(-c2cccs2)o1 5.03%
COc1ccc(-n2nc(C(=O)NCCc3cccc(C)c3)c3c4ccccc4n(C)c3c2=O)cc1Cl 28.3%
CCOC(=O)c1ccc(Nc2cc(-c3ccccc3)nc(C)n2)cc1 -5.8%
Cc1cccc(-c2nc(SCC(=O)Nc3ccc4c(c3)OCCO4)c(-c3ccccc3)[nH]2)c1 3.12%
CCc1nn2c(=O)cc(COC(=O)C(c3ccccc3)c3ccccc3)nc2s1 220%
COc1ccc(CNC(=O)Cc2csc3nc(-c4ccc(C)cc4)cn23)cc1 2.94%
COC(=O)CC1Oc2ccccc2-n2cc(-c3ccc(Cl)cc3)nc21 (stereo not given) -12.1%
O=C(COc1ccccc1)Nc1ccccc1C(=O)OCc1cc(=O)n2nc(C3CC3)sc2n1 2.06%
Cc1nnc(N2CCN(c3ccccc3F)CC2)c2c1nnn2Cc1ccccc1 4.04%
COc1ccc(NC(=O)CCn2cccn2)cc1OC -14.8%
Cc1cccc(C(=O)Nc2ccccc2SCc2cc(=O)c3cccc(C)c3[nH]2)c1 2.44%
CCOCCc1nn2c(=O)cc(COC(=O)C(CC)c3ccccc3)nc2s1 (stereo not given) 4.67%
Cc1ccc(N(C)C(=O)C2CCCN(c3ncnc4c3nc3n4CCCCC3)C2)cc1C (stereo not given) 5.37%
Cc1ccc(Cn2c(=O)n(Cc3ccccc3Cl)c(=O)c3ccccc32)cc1 -3.91%
CCCn1cc(S(=O)(=O)c2ccc(CC)cc2)c(=O)c2ccccc21 -4.43%
O=C(NC1CCNCC1)c1[nH]ncc1NC(=O)c1c(Cl)cccc1Cl 19.2%
Cc1ccc(-c2nc3cc(Cl)ccc3o2)cc1NC(=O)COc1ccc(F)cc1 -6.51%
COc1cccc(C2CC(=O)Nc3c2c(=O)nc2c(C)cccn32)c1OC (stereo not given) 2.95%
Cc1ccc(C(c2sc3nc(-c4ccco4)nn3c2O)N2CCN(Cc3ccccc3)CC2)cc1 (stereo not given) -14%
COc1ccccc1CNC(=O)c1cnn2c(C)c(Cc3ccc(F)cc3)c(C)nc12 -17.1%
Cc1cccc(N2CCN(C3(c4ccccc4)C(=O)c4ccccc4C3=O)CC2C)c1 (stereo not given) 9.21%
COc1ccc2c(c1OC)C(=O)OC2[C@H]1c2c(cc3c(c2OC)OCO3)CCN1C (stereo not given in full) 35.4%
CCOC(=O)c1ccc(NC(=O)CN2C(=O)COc3ccc(Cl)cc32)cc1 -6.01%
COc1ccc(N2CCN(C(=O)c3oc4ccccc4c3NC(=O)c3ccccc3OC)CC2)cc1 -11%
COc1ccc(-c2nc3sc(CCNC(=O)C(=O)Nc4c(C)cccc4C)c(C)n3n2)cc1 -2.92%
CC1CCCN(CCCNC(=O)CN2C(=O)CSc3ccc(S(=O)(=O)N4CCOCC4)cc32)C1 (stereo not given) 2.47%
CC(C)(C)OC(=O)N1CCC(c2c(C(=O)NC3CCCCC3)cnn2-c2cccc(Cl)c2)CC1 -4.22%
Cc1ccc(Cl)cc1N1CCN(C(=O)C2CCN(Cc3nc(-c4ccc(Cl)cc4)oc3C)CC2)CC1 -1.88%
Cc1c(C(=O)N2CCC(C)CC2)c(S(=O)(=O)N2CCN(c3ccc(Cl)cc3)CC2)c(C)n1C -1.28%
O=C(Cn1c(=O)oc2cc(S(=O)(=O)NC3CCCC3)ccc21)Nc1ccc(F)c(F)c1 4.47%
CN1C(=O)Cc2cc(S(=O)(=O)NCCc3ccccc3)ccc21 7.12%
Cc1cccc(-c2nc(SCC(=O)Nc3ccc4c(c3)OCO4)c(-c3ccccc3)[nH]2)c1 -15.2%
O=C(CCn1c(=O)c2cccn2c2cccnc21)N1CCN(c2cccc(Cl)c2)CC1 0.568%
CCc1ccc(OCC(=O)N(Cc2ccc(OC)cc2)C2CCS(=O)(=O)C2)cc1 (stereo not given) -0.943%
CCOC(=O)c1cc(-c2ccc(C)cc2)n(CCC(=O)Nc2ccc(OC)c(OC)c2)c1C 0.395%

outcome, inactive:
CCC(=O)N1c2ccccc2CC1C(=O)NCCN1CCN(c2ccccc2F)CC1 (stereo not given)
O=c1cc(N2CCN(c3ccc(F)cc3)CC2)[nH]c(=O)n1-c1cccc(Br)c1
CC[C@H](C)NC(=O)CCCc1nnc2n(CCC(C)C)c(=O)c3sccc3n12
COc1ccc(-c2cn3c(n2)sc2cc(C(=O)NC4CCCCC4)ccc23)cc1
Cc1ccnc(NC(c2cc(C)ccc2O)c2ccc3cccnc3c2O)c1 (stereo not given)
COCCN1CN=C(NS(=O)(=O)c2ccc(C)cc2)NC1
COc1ccccc1CNC(=O)c1cnn(-c2ccc(F)cc2F)c1C1CCN(C(=O)OC(C)(C)C)CC1
Cc1cccc(Cc2c(C)nc3nc(SCC(=O)NC4CCCCC4)nn3c2C)c1
COc1ccccc1N1CCN(C(=O)c2oc3ccccc3c2N)CC1
CC1CCN(S(=O)(=O)c2ccc3nc(N4CCN(c5ccccc5F)CC4)ccc3c2)CC1
CCOc1ccccc1CNC(=O)c1ccc(Cn2c(=O)c3cccn3c3cccnc32)cc1
Cc1cc(C)cc(N(CC(=O)NCc2ccccc2Cl)S(=O)(=O)c2c(C)noc2C)c1
Cc1ccccc1C(=O)Nc1nnc(S(=O)(=O)N2CCCCCC2)s1
CCOC(=O)Cn1c(=O)n(-c2ccccc2OC)c2nc(-c3ccccc3C)nc(C(N)=O)c21
Cc1ccc2occ(-c3cc(-c4ccc(Cl)cc4)nc4c3COc3ccccc3-4)c(=O)c2c1
CCCCc1nn2c(=O)cc(COC(=O)c3ccc(NC(=O)C4CCCCC4)cc3)nc2s1
CCOc1ccc(NC(=O)Cn2c(=O)n(CCC(=O)NCCc3ccccc3)c(=O)c3ccccc32)cc1
CCOc1ccc(NC(=O)CC2C(=O)N(c3cccc(C)c3)C(=O)N2Cc2cccnc2)cc1 (stereo not given)
CC1=C(C(=O)OC2CCCC2)C(c2ccccc2Cl)CC(=O)N1 (stereo not given)
Cn1nccc1C(=O)NCc1ccc2c(c1)CCN2C(=O)c1ccccc1
CCOc1ccccc1NC(=O)Cn1nnc(C(=O)Nc2ccc(C)c(C)c2)c1N
Cc1ccc(Cl)cc1N1CCN(S(=O)(=O)c2cc3[nH]c(=O)c(=O)[nH]c3cc2C)CC1
COc1ccc(NC(=O)C2CCCN2S(=O)(=O)c2ccc3nc(-c4ccccc4)[nH]c3c2)cc1 (stereo not given)
COc1ccc(CCNC(=O)c2ccc3c(c2)N(Cc2ccc(Cl)cc2)CCS3)c(OC)c1
CCCCCN1C(C(=O)c2ccccc2)=C(NC(=O)c2ccccc2Cl)c2ccccc2S1(=O)=O
